# Experimental data from PubChem BioAssay AID743279 (National Center for Advancing Translational Sciences (NCATS), 2014).
# About 17,000 (4.7%) of roughly 360,000 compounds were called active. This list was built around the results that the source calls inconclusive (neither active nor inactive); the mix of calls is not that of the screen. Rule as the data show it: active = activity change below about -50%; inconclusive = mostly about -30% to -49%; inactive = weaker than that.
# Test: qHTS for Inhibitors of Inflammasome Signaling: IL-1-beta AlphaLISA Primary Screen
# Conditions: THP-1 LPS/ATP IL-1B secretion, 16 h; at 57.5 µM, hits give low values
# In short: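 THP-1 cells pretreated 1 hr with compounds (up to 57.5 uM final), then stimulated with LPS (250 ng/mL final) plus ATP (1.25 mM final); secreted IL-1B measured by AlphaLISA after 16 hr, decreased signal indicating inhibition.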
# % is scaled to controls: 0 for no effect and ±100 for the full control effect.
row,SMILES,activity change
1,O=C(Nc1ccc(N2CCOCC2)cc1)C1CCCCN1S(=O)(=O)c1ccccc1 (centres undefined),inconclusive: -39.2%
2,CSc1ccc(CN(C)CC(=O)NCc2ccccc2)cc1,inconclusive: -34.2%
3,CC(C)c1ccc(/C=N/NC(=O)c2ccccn2)cc1,active: -52.5%
4,COc1ccc2nc(-c3ccccc3)[nH]c(=O)c2c1,inactive: -10.4%
5,Cc1c(C)n(Cc2ccc(Cl)cc2)c2ccc(C(=O)NCCCN3CCOCC3)cc12,inconclusive: -30%
6,COCCNC(=O)/C(=C/c1ccccc1Cl)c1ccccc1,inconclusive: -31.7%
7,CN(C)S(=O)(=O)c1cccc(NC(=O)COc2ccc(S(=O)(=O)N3CCOCC3)cc2Cl)c1,inactive: 12.5%
8,Cc1ccc(-c2csc(NC(=O)CSc3nc(C)cc(=O)[nH]3)n2)cc1,inactive: 34.3%
9,COc1ccccc1CNS(=O)(=O)c1ccc(N2CCCC2)cc1Br,inactive: -4.73%
10,COc1ccc(-n2cc(CNCC3CC(=O)N(C4CC4)C3)c(-c3ccccc3Cl)n2)cc1 (centres undefined),inconclusive: -38.4%
11,CN(C(=O)c1nn(C)c2c1CSc1ccccc1-2)c1ccccc1Cl,inconclusive: -42.5%
12,COC(=O)c1ccc(NC(=O)[C@H](C)NC(N)=O)cc1,inactive: -14.5%
13,COC(=O)C(C(=O)OC)c1ccccc1NC(=O)OCc1ccccc1,inactive: 6.82%
14,O=C(O)CCCNc1c(C(=O)Nc2ccc(Cl)cc2)cc([N+](=O)[O-])cc1[N+](=O)[O-],inactive: 55.4%
15,Cc1cccc(N(C(=O)c2nsc(Cl)c2Cl)C(C(=O)NC2CCCC2)c2ccc(O)cc2)c1C (centres undefined),active: -73.4%
16,CCOC(=O)C1(CC2CCCCO2)CCN(Cc2nc(C(C)C)cs2)CC1 (centres undefined),inconclusive: -31.3%
17,Cc1cccc(NC(=O)C2CCN(C(=O)N3CCOc4ccccc43)CC2)c1C,inconclusive: -35%
18,O=C(Nc1ccc(NC(=S)NC(=O)C(c2ccccc2)c2ccccc2)cc1)c1ccccc1,inconclusive: -42.7%
19,Nc1c2c(nc3ccc(Br)cc13)N(Cc1ccccc1)CC2,inconclusive: -44%
20,CCOc1c(Cl)cc(CNc2ccc(N3CCCC3)cc2)cc1OC,active: -71.6%
21,Cc1n[nH]c(=O)c2c(NC(=O)CSc3nc4ccccc4c(=O)n3-c3ccc(OC(F)F)cc3)oc(C)c12,inconclusive: -39.3%
22,CCc1c(C)sc(NC(=O)c2ccc(Br)o2)c1C(=O)OC,inconclusive: -33.3%
23,N#CC(C#N)=C1C(=O)N(CCN2CCCCC2)c2ccccc21,inconclusive: -40.1%
24,Cc1ccc(-c2cc(C(=O)N3CCN(c4ccccc4O)CC3)c3ccccc3n2)o1,inconclusive: -37.8%
25,O=C(NCC(O)CN1CCOCC1)c1ccc([N+](=O)[O-])cc1 (centres undefined),inactive: 10.5%
26,COc1ccc(CNC(=O)c2oc3ccc(S(=O)(=O)N4CCOCC4)cc3c2C)cc1,inconclusive: -38%
27,O=C(CCNC(=O)c1ccc([N+](=O)[O-])cc1)Nc1ccc(F)cc1F,inactive: -16.2%

row,SMILES,activity change
1,Cc1c(C)c(C)c(C(=O)C2CCN(c3ccc([N+](=O)[O-])cn3)CC2)c(C)c1C,inactive: 28%
2,Cc1cccc(N(C(=O)c2snc(C(N)=O)c2N)C(C(=O)NCC2CCCO2)c2ccc3ncccc3c2)c1 (centres undefined),inconclusive: -38.6%
3,N#Cc1nc(COc2ccc(Cl)cc2Cl)oc1N1CCOCC1,inconclusive: -39.5%
4,COc1ccc(-c2cnnc(N/N=C/c3ccc(O)cc3)n2)cc1,inconclusive: -32.4%
5,COc1ccc(CCCNC(=O)C2(C)Cc3c(-c4ccc(NC(C)=O)cc4)ccnc3O2)cc1 (centres undefined),inconclusive: -34.7%
6,Cc1c(C)c2c(OCC(=O)N3CCC[C@H]3C(=O)O)cc3c(c2oc1=O)CCC(C)(C)O3,inactive: -6.22%
7,Cc1noc(-c2ccc(Cl)cc2)c1C(=O)O/N=C(\N)c1ccc(C(C)(C)C)cc1,active: -66%
8,COc1ccc(OCC(=O)Nc2ccc3c(c2)nc(CCN2CCCCC2)n3C)cc1,inconclusive: -32%
9,CCOC(=O)c1sc(NC(=O)CSCc2c(C)noc2C)nc1C,inconclusive: -31.9%
10,Fc1ccccc1N1CCN(CCCNc2ccc3nncn3n2)CC1,inactive: 13.3%
11,CCc1ccc(N(C(=O)c2ccco2)C(C(=O)NC2CCCC2)c2ccco2)cc1 (centres undefined),inconclusive: -43.4%
12,CCCCCC1CC(CC(=O)Nc2ccc([N+](=O)[O-])cc2)C(=O)O1 (centres undefined),inconclusive: -30.9%
13,CC1(Cc2ccc(C(F)(F)F)o2)C(=O)Nc2cc(-c3ccc(F)cc3F)ccc21 (centres undefined),active: -64.3%
14,COCCOC(=O)c1c(C)nc(SCC(=O)Nc2cccc3ccccc23)c(C#N)c1-c1ccco1,inactive: 122%
15,COc1ccc(NC(=O)CSc2nc(C3CC3)nc3ccccc23)cc1,inconclusive: -34.7%
16,CCOC(=O)c1cc(-c2ccccc2)n(CCC(=O)NC(C)CC)c1C (centres undefined),inconclusive: -34.4%
17,Cc1cc(Cl)ccc1C(O)c1ncc(-c2ccccc2Cl)[nH]1 (centres undefined),inactive: -5.2%
18,CCN1CCN(Cc2cc(=O)oc3cc(C)cc(C)c23)CC1,inconclusive: -38.1%
19,Cc1ccc2cc(CN(Cc3ccc(F)cc3)Cc3nnnn3C3CCCC3)c(=O)[nH]c2c1,active: -61.2%
20,C=CCn1cnc2c(c1=O)c1nc3ccccc3nc1n2/N=C/c1cccc(OC)c1OC,active: -52.1%
21,CC12CCC(=O)C=C1CCC1C2C(O)CC2(C)C1CCC2(O)C(=O)CO (centres undefined),inconclusive: -37.6%
22,Cc1ccc2[nH]c(=O)c(CN(Cc3cccs3)Cc3nnnn3Cc3ccccc3)cc2c1,inconclusive: -46.9%
23,CCNC(=O)c1ccccc1-c1nc(-c2ccccc2Cl)no1,inactive: 14.6%
24,Cc1ccc(S(=O)(=O)N2CCCC2CNC(=O)C(=O)Nc2ccccc2)cc1 (centres undefined),inconclusive: -42.3%
25,O=C(NCc1ccc(C(F)(F)F)cc1)C1CC(c2c(Cl)cccc2Cl)=NO1 (centres undefined),inconclusive: -34.3%
26,Cc1cc(C)cc(NC(=O)C(OC(=O)c2ccc(NC(=O)CC#N)cc2)c2ccccc2)c1 (centres undefined),inconclusive: -42.9%
27,CCN(CC)S(=O)(=O)c1ccc(N/N=C(\C)c2ccc3c(c2)OCO3)c([N+](=O)[O-])c1,inactive: -9.44%
